The values below come from article PMC9911399, “Two distinct binding modes provide the RNA-binding protein RbFox with extraordinary sequence specificity”.

B1: AAGAUUG (DNA:RNA)
RNA: GGGAGACCGGAAUUCAGAUUGUCCAAGAUUGUUAAAUCCCGUCGUAGCCACCA
DNA 1: CAATCTGAATTCCGGTCTCCC
DNA 2: TGGTGGCTACGACGGGATT
B2: AAUUUCG (DNA:RNA)
RNA: B1 RNA with G27U, A28U, U30C
DNA 1: CAATCTGAATTCCGGTCTCCC
DNA 2: TGGTGGCTACGACGGGATT
B3: ACGUGUC (DNA:RNA)
RNA: B1 RNA with A26C, A28U, U29G, G31C
DNA 1: CAATCTGAATTCCGGTCTCCC
DNA 2: TGGTGGCTACGACGGGATT
B4: GAAUGCU (DNA:RNA)
RNA: B1 RNA with A25G, G27A, A28U, U29G, U30C, G31U
DNA 1: CAATCTGAATTCCGGTCTCCC
DNA 2: TGGTGGCTACGACGGGATT
B5: CAUGCCG (DNA:RNA)
RNA: B1 RNA with A25C, G27U, A28G, U29C, U30C
DNA 1: CAATCTGAATTCCGGTCTCCC
DNA 2: TGGTGGCTACGACGGGATT
B6: GGACCCA (DNA:RNA)
RNA: GGGAGACCGGAAUUCAGAUUGUCCGGACCCAUUAAAUCCCGUCGUAGCCACCA
DNA 1: CAATCTGAATTCCGGTCTCCC
DNA 2: TGGTGGCTACGACGGGATT
B7: CAUGACU (DNA:RNA)
RNA: B1 RNA with A25C, G27U, A28G, U29A, U30C, G31U
DNA 1: CAATCTGAATTCCGGTCTCCC
DNA 2: TGGTGGCTACGACGGGATT
B8: GCACGUU (DNA:RNA)
RNA: B6 RNA with G26C, C29G, C30U, A31U
DNA 1: CAATCTGAATTCCGGTCTCCC
DNA 2: TGGTGGCTACGACGGGATT
B9: AGUACAG (DNA:RNA)
RNA: B1 RNA with A26G, G27U, U29C, U30A
DNA 1: CAATCTGAATTCCGGTCTCCC
DNA 2: TGGTGGCTACGACGGGATT
B10: CACCGGU (DNA:RNA)
RNA: B1 RNA with A25C, G27C, A28C, U29G, U30G, G31U
DNA 1: CAATCTGAATTCCGGTCTCCC
DNA 2: TGGTGGCTACGACGGGATT
B11: CCUCCGC (DNA:RNA)
RNA: B6 RNA with G25C, G26C, A27U, C30G, A31C
DNA 1: CAATCTGAATTCCGGTCTCCC
DNA 2: TGGTGGCTACGACGGGATT
B12: UCAUAUU (DNA:RNA)
RNA: B1 RNA with A25U, A26C, G27A, A28U, U29A, G31U
DNA 1: CAATCTGAATTCCGGTCTCCC
DNA 2: TGGTGGCTACGACGGGATT
B13: ACCUGCG (DNA:RNA)
RNA: B1 RNA with A26C, G27C, A28U, U29G, U30C
DNA 1: CAATCTGAATTCCGGTCTCCC
DNA 2: TGGTGGCTACGACGGGATT
B14: AGGGAUU (DNA:RNA)
RNA: B1 RNA with A26G, A28G, U29A, G31U
DNA 1: CAATCTGAATTCCGGTCTCCC
DNA 2: TGGTGGCTACGACGGGATT
B15: CAUUAGC (DNA:RNA)
RNA: B1 RNA with A25C, G27U, A28U, U29A, U30G, G31C
DNA 1: CAATCTGAATTCCGGTCTCCC
DNA 2: TGGTGGCTACGACGGGATT
B16: AAAGGUC (DNA:RNA)
RNA: B1 RNA with G27A, A28G, U29G, G31C
DNA 1: CAATCTGAATTCCGGTCTCCC
DNA 2: TGGTGGCTACGACGGGATT
B17: CGAGACU (DNA:RNA)
RNA: B6 RNA with G25C, C28G, C29A, A31U
DNA 1: CAATCTGAATTCCGGTCTCCC
DNA 2: TGGTGGCTACGACGGGATT
B18: UGUUUCA (DNA:RNA)
RNA: B6 RNA with G25U, A27U, C28U, C29U
DNA 1: CAATCTGAATTCCGGTCTCCC
DNA 2: TGGTGGCTACGACGGGATT
B19: AGUCGCA (DNA:RNA)
RNA: B6 RNA with G25A, A27U, C29G
DNA 1: CAATCTGAATTCCGGTCTCCC
DNA 2: TGGTGGCTACGACGGGATT
B20: GUCUCCG (DNA:RNA)
RNA: B6 RNA with G26U, A27C, C28U, A31G
DNA 1: CAATCTGAATTCCGGTCTCCC
DNA 2: TGGTGGCTACGACGGGATT
B21: CGCGAAU (DNA:RNA)
RNA: B6 RNA with G25C, A27C, C28G, C29A, C30A, A31U
DNA 1: CAATCTGAATTCCGGTCTCCC
DNA 2: TGGTGGCTACGACGGGATT
B22: CGAAUGA (DNA:RNA)
RNA: B6 RNA with G25C, C28A, C29U, C30G
DNA 1: CAATCTGAATTCCGGTCTCCC
DNA 2: TGGTGGCTACGACGGGATT
B23: UGCAGGG (DNA:RNA)
RNA: B1 RNA with A25U, A26G, G27C, U29G, U30G
DNA 1: CAATCTGAATTCCGGTCTCCC
DNA 2: TGGTGGCTACGACGGGATT
B24: GGAAGCA (DNA:RNA)
RNA: B6 RNA with C28A, C29G
DNA 1: CAATCTGAATTCCGGTCTCCC
DNA 2: TGGTGGCTACGACGGGATT
B25: GCAUAUU (DNA:RNA)
RNA: B6 RNA with G26C, C28U, C29A, C30U, A31U
DNA 1: CAATCTGAATTCCGGTCTCCC
DNA 2: TGGTGGCTACGACGGGATT
B26: GGUAUGU (DNA:RNA)
RNA: B1 RNA with A25G, A26G, G27U, U30G, G31U
DNA 1: CAATCTGAATTCCGGTCTCCC
DNA 2: TGGTGGCTACGACGGGATT
B27: GUUAAUG (DNA:RNA)
RNA: B1 RNA with A25G, A26U, G27U, U29A
DNA 1: CAATCTGAATTCCGGTCTCCC
DNA 2: TGGTGGCTACGACGGGATT
B28: UCUGAUA (DNA:RNA)
RNA: B1 RNA with A25U, A26C, G27U, A28G, U29A, G31A
DNA 1: CAATCTGAATTCCGGTCTCCC
DNA 2: TGGTGGCTACGACGGGATT
B29: AUUCAGG (DNA:RNA)
RNA: B1 RNA with A26U, G27U, A28C, U29A, U30G
DNA 1: CAATCTGAATTCCGGTCTCCC
DNA 2: TGGTGGCTACGACGGGATT
B30: GUUACUC (DNA:RNA)
RNA: B1 RNA with A25G, A26U, G27U, U29C, G31C
DNA 1: CAATCTGAATTCCGGTCTCCC
DNA 2: TGGTGGCTACGACGGGATT
B31: AAGGUUU (DNA:RNA)
RNA: B1 RNA with A28G, G31U
DNA 1: CAATCTGAATTCCGGTCTCCC
DNA 2: TGGTGGCTACGACGGGATT

Substitutions are numbered along the chain they refer to; changes in the protein carry UniProt numbers. Some of the results follow.

The target of this assay is T1, RBFOX1 RRM RbFoxmut (Fox-RRM*) (Homo sapiens, UniProt Q9NWB1 109-208, R118D;E147R;N151S;E152T).
T1 sequence: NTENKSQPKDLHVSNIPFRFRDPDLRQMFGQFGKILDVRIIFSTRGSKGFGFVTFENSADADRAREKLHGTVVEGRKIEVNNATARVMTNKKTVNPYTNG
Put plainly: EMSA; HiTS-Eq, 1 nM pool, 10 min; buffer printed only for the single-RNA assays: 10 mM Tris pH 7.5, 150 mM NaCl, 3.4 mM EDTA, 0.001% NP-40, 30 C. Particulars: tags: His6 N-terminal (pET28a); label: 5' 32P. A digest of the protocol:
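Purified RbFox RRM (wild type or mutant) was equilibrated for 10 min in 50 µL with 1 nM of a 5′-radiolabelled pool of RNA with 7 randomized nucleotides, its flanks annealed to DNA oligonucleotides, across increasing protein concentrations. Free RNA was separated by 8% native PAGE, excised, reverse-transcribed, PCR-barcoded and sequenced on an Illumina HiSeq 2500. Relative association constants came from read-count changes of each variant against the control reaction, normalised to the cognate motif.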
Background: A gel shift assay detects complexes by their altered migration in electrophoresis.
Take B1: the binding signal was 0.223 KA relative to UGCAUGU.

Take B2: the binding signal was 0.0766 KA relative to UGCAUGU.

Turning to B3, the binding signal is 0.254 KA relative to UGCAUGU.

On to B4, for which the binding signal is 0.634 KA relative to UGCAUGU.

For the molecule B5, the binding signal was 0.0986 KA relative to UGCAUGU.

Take B6: the binding signal is 0.0818 KA relative to UGCAUGU.

For the molecule B7, the binding signal is 0.074 KA relative to UGCAUGU.

On to B8, for which the binding signal was 0.318 KA relative to UGCAUGU.

On to B9, for which the binding signal was 0.0613 KA relative to UGCAUGU.

In the case of B10, the binding signal was 0.0698 KA relative to UGCAUGU.

With B11, the binding signal was 0.0792 KA relative to UGCAUGU.

With B12, the binding signal is 0.105 KA relative to UGCAUGU.

In the case of B13, the binding signal is 0.117 KA relative to UGCAUGU.

Take B14: the binding signal was 0.113 KA relative to UGCAUGU.

B15: the binding signal was 0.0975 KA relative to UGCAUGU.

For the molecule B16, the binding signal was 0.0652 KA relative to UGCAUGU.

Take B17: the binding signal was 0.0834 KA relative to UGCAUGU.

In the case of B18, the binding signal was 0.155 KA relative to UGCAUGU.

As for B19, the binding signal is 0.133 KA relative to UGCAUGU.

As to B20, the binding signal was 0.142 KA relative to UGCAUGU.

Consider B21, for which the binding signal was 0.0891 KA relative to UGCAUGU.

For B22, the binding signal is 1.04 KA relative to UGCAUGU.

As to B23, the binding signal was 0.091 KA relative to UGCAUGU.

Take B24: the binding signal was 0.0999 KA relative to UGCAUGU.

Take B25: the binding signal was 0.142 KA relative to UGCAUGU.

Turning to B26, the binding signal is 0.662 KA relative to UGCAUGU.

With B27, the binding signal was 0.138 KA relative to UGCAUGU.

Consider B28, for which the binding signal is 0.0872 KA relative to UGCAUGU.

For B29, the binding signal was 0.0936 KA relative to UGCAUGU.

Turning to B30, the binding signal is 0.0779 KA relative to UGCAUGU.

As to B31, the binding signal is 0.0775 KA relative to UGCAUGU.
